We go through 125 sequences from the supplement of paper PMC6451100.

This is one part of the list. Values come from read counts of a selection and are noisy.
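Further: S2-R+ lysate came from cells stably expressing FLAG-tagged AGO2, enrichment per 5N variant computed with FASTAptamer, reads lacking the constant 3′ segment discarded.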

The test system of the assay is Drosophila AGO1 (endogenous, S2-R+ lysate). Kind of assay: AGO1 loading enrichment factor (IP read count / input read count, not library-size normalised) (ratio); higher = more efficient loading into AGO1. Particulars: randomized region: 5' 5N of miR-317 loop. The method, then:
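HISSA: 5'-phosphorylated, 32P-labelled 20-nt ssRNA oligos (miR-317 loop, first 5 nt randomized, constant 3' part TGAAATGCAAGCAAG as printed in methods; DNA letters for RNA) incubated 1 h at 25°C in S2-R+ cell lysate. Endogenous AGO1 was immunopurified with anti-AGO1 and bound oligos were sequenced after splinted ligation.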
On to CGCGATGAAATGCAAGCAAG, for which the “AGO1 loading enrichment factor” value turned out to be 0.472.
For TTAGTTGAAATGCAAGCAAG the value was 0.148.
For TGGGCTGAAATGCAAGCAAG the value was 0.0708; for GAGACTGAAATGCAAGCAAG, 0.33; for ATACGTGAAATGCAAGCAAG, 0.138.
On to GTTTGTGAAATGCAAGCAAG, for which the “AGO1 loading enrichment factor” value came out at 0.0502.
On to CTTTATGAAATGCAAGCAAG, for which the “AGO1 loading enrichment factor” value turned out to be 0.171.
To CTCGTTGAAATGCAAGCAAG belongs 0.0731; to CAAAATGAAATGCAAGCAAG, 0.152.
For TGGCCTGAAATGCAAGCAAG the value was 0.282; for ACGCGTGAAATGCAAGCAAG, 0.0924; for TAGTTTGAAATGCAAGCAAG, 0.145.
Consider TCCCGTGAAATGCAAGCAAG, for which the “AGO1 loading enrichment factor” value was found to be 0.469.
As for CGTTTTGAAATGCAAGCAAG, the “AGO1 loading enrichment factor” value is 0.0844.
For CTATCTGAAATGCAAGCAAG the value was 0.128.
To ATCCATGAAATGCAAGCAAG belongs 0.253; to CATTCTGAAATGCAAGCAAG, 0.00507.
For the sequence CACTTTGAAATGCAAGCAAG, the “AGO1 loading enrichment factor” value stood at 0.0612.
For GTCTGTGAAATGCAAGCAAG the value was 0.0124.
With ACGTTTGAAATGCAAGCAAG, the “AGO1 loading enrichment factor” value stood at 0.0363.
For ATAGATGAAATGCAAGCAAG the value was 0.128.
To ACGCCTGAAATGCAAGCAAG belongs 0.185; to CGGATTGAAATGCAAGCAAG, 0.14; to CTTGATGAAATGCAAGCAAG, 0.00743.
TAAGATGAAATGCAAGCAAG: the “AGO1 loading enrichment factor” value came to 0.327.
For CTCACTGAAATGCAAGCAAG the value was 0.118.
To CTAGTTGAAATGCAAGCAAG belongs 0.0481; to AAACGTGAAATGCAAGCAAG, 0.148; to GGACTTGAAATGCAAGCAAG, 0.095.
To TACACTGAAATGCAAGCAAG belongs 0.487; to CCACTTGAAATGCAAGCAAG, 0.00328.
For AGACATGAAATGCAAGCAAG, the “AGO1 loading enrichment factor” value was 0.401.
For CGATCTGAAATGCAAGCAAG the value was 0.034.
With CAGCGTGAAATGCAAGCAAG, the “AGO1 loading enrichment factor” value came out at 0.102.
For CAGTATGAAATGCAAGCAAG the value was 0.072; for GCAGTTGAAATGCAAGCAAG, 0.038; for GACTATGAAATGCAAGCAAG, 2.2.
For TCGAATGAAATGCAAGCAAG the value was 0.59; for ATGCCTGAAATGCAAGCAAG, 0.442.
In the case of TTTCGTGAAATGCAAGCAAG, the “AGO1 loading enrichment factor” value amounted to 0.55.
For AAGGTTGAAATGCAAGCAAG the value was 0.121; for CTTCGTGAAATGCAAGCAAG, 0.00566.
To ATTGGTGAAATGCAAGCAAG belongs 0.232.
As to GCAGCTGAAATGCAAGCAAG, the “AGO1 loading enrichment factor” value was 0.0124.
For GTGGATGAAATGCAAGCAAG the value was 0.831.
To CTCTCTGAAATGCAAGCAAG belongs 0.0241; to TTAACTGAAATGCAAGCAAG, 0.248.
For TGCGGTGAAATGCAAGCAAG the value was 0.0635; for ACGGGTGAAATGCAAGCAAG, 0.451.
For the sequence AATGTTGAAATGCAAGCAAG, the “AGO1 loading enrichment factor” value came to 0.12.
Regarding GAATGTGAAATGCAAGCAAG, the “AGO1 loading enrichment factor” value amounted to 0.084.
For TGAGTTGAAATGCAAGCAAG the value was 0.172; for GGCTGTGAAATGCAAGCAAG, 0.125.
As for ACATGTGAAATGCAAGCAAG, the “AGO1 loading enrichment factor” value is 0.0755.
On to TCCTGTGAAATGCAAGCAAG, for which the “AGO1 loading enrichment factor” value is 0.212.
For CTGATTGAAATGCAAGCAAG the value was 0.102; for TATAATGAAATGCAAGCAAG, 0.441.
For GAGCATGAAATGCAAGCAAG the value was 0.0843.
To AACGTTGAAATGCAAGCAAG belongs 0.121.
For ATTCTTGAAATGCAAGCAAG, the “AGO1 loading enrichment factor” value was determined as 0.251.
For AACCTTGAAATGCAAGCAAG the value was 0.151.
For TGATTTGAAATGCAAGCAAG the value was 0.0792.
For ATACTTGAAATGCAAGCAAG the value was 0.125; for GCGGTTGAAATGCAAGCAAG, 0.655; for GCCAGTGAAATGCAAGCAAG, 0.0843.
On to GCGATTGAAATGCAAGCAAG, for which the “AGO1 loading enrichment factor” value amounted to 1.19.
For TTGATTGAAATGCAAGCAAG the value was 1.2; for CCCGATGAAATGCAAGCAAG, 0.0923.
Consider GGTTTTGAAATGCAAGCAAG, for which the “AGO1 loading enrichment factor” value turned out to be 0.142.
As for GACAATGAAATGCAAGCAAG, the “AGO1 loading enrichment factor” value turned out to be 5.52.
GGCGTTGAAATGCAAGCAAG: the “AGO1 loading enrichment factor” value turned out to be 0.184.
To ACTGTTGAAATGCAAGCAAG belongs 0.182; to CTGGCTGAAATGCAAGCAAG, 0.0291; to TCGACTGAAATGCAAGCAAG, 0.976.
To AGTCCTGAAATGCAAGCAAG belongs 0.106; to CATAGTGAAATGCAAGCAAG, 0.0631.
For CGGTGTGAAATGCAAGCAAG the value was 0.172; for CCTCTTGAAATGCAAGCAAG, 0.00541; for GTCGATGAAATGCAAGCAAG, 1.66.
For the sequence TGTTTTGAAATGCAAGCAAG, the “AGO1 loading enrichment factor” value turned out to be 0.153.
As to CGGAGTGAAATGCAAGCAAG, the “AGO1 loading enrichment factor” value was 0.283.
For ACTGCTGAAATGCAAGCAAG the value was 0.0773.
For AACCCTGAAATGCAAGCAAG the value was 0.636; for AAAACTGAAATGCAAGCAAG, 0.141.
For the sequence GTACCTGAAATGCAAGCAAG, the “AGO1 loading enrichment factor” value worked out at 0.506.
Regarding GACACTGAAATGCAAGCAAG, the “AGO1 loading enrichment factor” value was determined as 3.27.
To AAGCGTGAAATGCAAGCAAG belongs 0.12.
To GGTAATGAAATGCAAGCAAG belongs 0.123; to GAGATTGAAATGCAAGCAAG, 0.169; to GACCCTGAAATGCAAGCAAG, 0.575.
To ATGAGTGAAATGCAAGCAAG belongs 0.209; to CTCGATGAAATGCAAGCAAG, 0.0678.
On to AATATTGAAATGCAAGCAAG, for which the “AGO1 loading enrichment factor” value was determined as 0.149.
For AAACATGAAATGCAAGCAAG, the “AGO1 loading enrichment factor” value turned out to be 0.103.
To CGGAATGAAATGCAAGCAAG belongs 0.119.
To TAGCATGAAATGCAAGCAAG belongs 0.454; to GATCGTGAAATGCAAGCAAG, 0.109; to CGGGCTGAAATGCAAGCAAG, 0.0521.
To AGAAGTGAAATGCAAGCAAG belongs 0.115; to CTTTCTGAAATGCAAGCAAG, 0.00607; to TGTAGTGAAATGCAAGCAAG, 0.0757.
Turning to AGACGTGAAATGCAAGCAAG, the “AGO1 loading enrichment factor” value was 1.02.
For the sequence TCAATTGAAATGCAAGCAAG, the “AGO1 loading enrichment factor” value came out at 0.27.
To ACGCATGAAATGCAAGCAAG belongs 0.111; to TGGCGTGAAATGCAAGCAAG, 0.109; to TCTGCTGAAATGCAAGCAAG, 1.62.
For TTATATGAAATGCAAGCAAG the value was 0.216.
For AAGTTTGAAATGCAAGCAAG the value was 0.0995; for AGAAATGAAATGCAAGCAAG, 0.094.
In the case of TCGGATGAAATGCAAGCAAG, the “AGO1 loading enrichment factor” value came out at 0.339.
For TGCGCTGAAATGCAAGCAAG the value was 0.0471; for CACGGTGAAATGCAAGCAAG, 0.177.
To AGGAGTGAAATGCAAGCAAG belongs 0.378; to ACGGTTGAAATGCAAGCAAG, 0.161; to GTTTTTGAAATGCAAGCAAG, 0.0496.
For CTCTATGAAATGCAAGCAAG the value was 0.39; for TCGGTTGAAATGCAAGCAAG, 0.135; for GAGCCTGAAATGCAAGCAAG, 0.101.
Regarding TAACATGAAATGCAAGCAAG, the “AGO1 loading enrichment factor” value was found to be 0.619.
On to GGCCTTGAAATGCAAGCAAG, for which the “AGO1 loading enrichment factor” value is 0.086.
For CGCGCTGAAATGCAAGCAAG the value was 0.0124; for TTGCATGAAATGCAAGCAAG, 1.05; for CATGGTGAAATGCAAGCAAG, 0.0568.
To TTGCCTGAAATGCAAGCAAG belongs 0.933; to CGTAGTGAAATGCAAGCAAG, 0.0527.
